Data as given in publication PMC4336329 (PLoS ONE, 2015).
Hit rate of the full screen: of about 310,000 compounds, about 2,200 (0.71%) showed an effect of 50% or more. Effects have a minus sign here. This is one part of the list.

molecular target: human ether-à-go-go-related gene (hERG) potassium channel (human, UniProt Q12809); experiment: primary screen, population patch clamp on CHO cells stably expressing hERG
Sequence (Q12809 whole entry, looked up): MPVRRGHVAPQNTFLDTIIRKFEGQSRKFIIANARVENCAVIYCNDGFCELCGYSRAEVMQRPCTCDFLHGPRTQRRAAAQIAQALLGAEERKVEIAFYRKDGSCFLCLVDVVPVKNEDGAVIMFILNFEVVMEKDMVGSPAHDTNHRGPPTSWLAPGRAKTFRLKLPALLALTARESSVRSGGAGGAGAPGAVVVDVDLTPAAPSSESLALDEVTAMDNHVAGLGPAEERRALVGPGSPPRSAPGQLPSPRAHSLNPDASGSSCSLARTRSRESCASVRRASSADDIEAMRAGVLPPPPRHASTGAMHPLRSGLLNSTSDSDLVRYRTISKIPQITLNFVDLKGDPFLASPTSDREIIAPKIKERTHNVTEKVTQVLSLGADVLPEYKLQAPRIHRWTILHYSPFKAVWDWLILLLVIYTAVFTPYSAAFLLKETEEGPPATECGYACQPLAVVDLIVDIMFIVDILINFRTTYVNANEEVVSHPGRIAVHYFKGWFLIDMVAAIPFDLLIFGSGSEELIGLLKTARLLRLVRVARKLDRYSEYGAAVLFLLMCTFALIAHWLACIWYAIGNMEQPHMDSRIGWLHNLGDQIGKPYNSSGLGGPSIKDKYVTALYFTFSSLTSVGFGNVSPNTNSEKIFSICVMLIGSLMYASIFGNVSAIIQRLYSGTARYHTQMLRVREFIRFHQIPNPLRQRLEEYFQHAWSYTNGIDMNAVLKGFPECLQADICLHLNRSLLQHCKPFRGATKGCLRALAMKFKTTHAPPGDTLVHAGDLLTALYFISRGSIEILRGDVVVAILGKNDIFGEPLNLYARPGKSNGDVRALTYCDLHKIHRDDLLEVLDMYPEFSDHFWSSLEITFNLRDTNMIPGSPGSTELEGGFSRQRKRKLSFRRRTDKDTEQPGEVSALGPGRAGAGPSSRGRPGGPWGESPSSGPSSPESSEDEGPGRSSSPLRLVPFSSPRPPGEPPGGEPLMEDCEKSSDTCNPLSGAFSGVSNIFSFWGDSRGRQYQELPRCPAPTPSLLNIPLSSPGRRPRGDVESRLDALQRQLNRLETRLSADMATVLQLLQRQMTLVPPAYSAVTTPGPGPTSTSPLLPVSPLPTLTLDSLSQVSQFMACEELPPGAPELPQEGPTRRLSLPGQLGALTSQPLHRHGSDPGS

Row | Compound | hERG current change (%, negative = inhibition) at 1uM [%]
1 | Cc1nn(CC(=O)N(C)Cc2ccccc2)c(=O)c2cccn12 | 13.9
2 | O=C(CN1CCCN(Cc2ccc(F)cc2Cl)C1=O)NC1CCCC1 | 12
3 | CCOC(=O)N1CCN(c2c(NCCc3ccc(OC)c(OC)c3)c(=O)c2=O)CC1 | 6.41
4 | O=C(CSCc1ccc(Br)cc1)NCc1ccccn1 | 8.97
5 | COc1ccc(N)cc1C#N | 0.109
6 | Cc1cc(Br)ccc1NC(=O)CNC(=O)CNc1cccc([N+](=O)[O-])c1 | 2.05
7 | Cc1cc(Br)cc(C=Nc2ccc(N3CCOCC3)cc2)c1O | 11.1
8 | N#Cc1ccc(CN2CCN(C(=O)c3ccc(S(=O)(=O)N4CCCCCC4)cc3)CC2)cc1 | -5.24
9 | O=C(c1ccccc1OCc1ccccc1Br)N1CCN(c2ncccn2)CC1 | -13.6
10 | Cc1ccc(SCCOCCN2CCc3ccccc3C2)cc1 | -6.57
11 | O=C(CCC1CCCCC1)Nc1ccc(C(=O)c2ccncc2)cc1 | 0.002
12 | CCOc1ccc(-n2cc(C(=O)NCCOC)c3cc(OC)c(OC)cc3c2=O)cc1 | 17.9
13 | COc1ccccc1N1CCN(C(=O)CN(C)S(=O)(=O)c2ccc3c(c2)c(=O)n(C)c(=O)n3C)CC1 | 5.58
14 | NC(=O)CSc1nc2scc(-c3ccco3)c2c(=O)n1-c1ccccc1 | 1.26
15 | O=C(CCc1nc2ccccc2s1)NCc1ccccc1F | 14.5
16 | Cc1nn(C)c(C)c1C1C(C#N)=C(N)OC2=C1C(=O)CC(C)(C)C2 (centres unmarked) | -2.5
17 | COC(=O)[C@@H](NC(=O)NC1CCCc2ccccc21)C(C)C (some centres unmarked) | 16.9
18 | Cc1onc(-c2ccccc2Cl)c1C(=O)Nc1ccccc1C(N)=O | 4.31
19 | COc1ccccc1Cn1c(SCC#N)nc2cc(C(=O)N3CCC4(CC3)OCCO4)ccc2c1=O | 16.1
20 | Fc1ccc(Nc2nc(-c3cccnc3)cs2)cc1 | 13.7
21 | Nn1c(SCC(=O)NCc2ccccc2)nncc1=O | 11.3
22 | Cc1ccc(S(=O)(=O)N(C)CC(=O)NNC(=O)Cc2cccc(F)c2)cc1 | 4.71
23 | Cc1cc(C)cc(-n2ncc3c2CCCC3NC(=O)c2cc(C)[nH]n2)c1 (centres unmarked) | 6.03

Row | Compound | hERG current change (%, negative = inhibition) at 1uM [%]
24 | CCOc1ccc(NC(=S)NCc2ccc3[nH]c(C)cc3c2)cc1 | 18.4
25 | CCOC(=O)C1=C(N)n2c(s/c(=C\c3cccs3)c2=O)=C(C(=O)OCC)C1c1cccs1 (centres unmarked) | 16.6
26 | O=C1c2ccccc2C(=O)N1c1n[nH]c(CCc2ccccc2)n1 | 5.86
27 | O=C(CCSCc1ccc(Cl)cc1)NCCC1=CCCCC1 | 15.2
28 | CCn1c(SCc2ccc(F)cc2)nc2ccccc2c1=O | 18.3
29 | CCn1cc(C(=O)N2CCN(C(=O)c3ccco3)CC2)c2cc(OC)c(OC)cc2c1=O | 12.9
30 | COc1cccc(C(=O)N[C@@H](CCSC)c2nc3ccccc3[nH]2)c1 | 3.44
31 | Cn1cc(CN2CCC(Oc3ccc(C(=O)N4CCCCC4)cc3)CC2)cn1 | 9.69
32 | CC1CCCN(S(=O)(=O)c2ccc(NC(=O)C3CCN(C(=O)C(C)(C)C)CC3)cc2)C1 (centres unmarked) | 5.57
33 | Cc1ccc(Cn2nnc3c(=O)n(CC(=O)N4CCCCC4)cnc32)cc1 | -2.84
34 | Cc1ccccc1NC(=S)Nn1cnnc1 | 14.6
35 | CCCCC(=O)Nc1nnc(CCOC)s1 | 14.6
36 | Cn1c(=O)c2c(nc(Oc3ccc4c(c3)OCO4)n2Cc2ccc(Cl)cc2)n(C)c1=O | 8.2
37 | COc1cccc(C(CC(=O)Nc2cccc3ccccc23)NC(=O)c2ccccc2)c1 (centres unmarked) | 4.76
38 | O=C(NCC(O)CO)c1csc(Nc2cccc3ccccc23)n1 (centres unmarked) | 11.5
39 | Cc1nn(CC(=O)NCc2ccccc2)c(C)c1[N+](=O)[O-] | 3.9
40 | CN1CCN(c2c(F)cc3c(=O)c(C(=O)O)cn4c3c2SCC4)CC1.Cl | 12.2
41 | CCOc1ccc(-n2c(SCc3nc(-c4ccc(C)cc4)no3)nnc2-c2ccncc2)cc1 | -42.3
42 | COc1ccccc1N1CCN(C(=O)c2cccs2)CC1 | 14.2
43 | Cn1nc(C(=O)Nc2sccc2C(N)=O)ccc1=O | 15.1
44 | COc1ccc(Br)cc1CNC(C)c1ccccc1 (centres unmarked) | 7.15
45 | CCOC(=O)c1c(C)[nH]c(C(=O)OCc2ccc(F)cc2)c1C | 6.2
46 | Cc1cccc(NC(=O)CCN2CC(C)CC(C)C2)c1.Cl (centres unmarked) | -29.4

Row | Compound | hERG current change (%, negative = inhibition) at 1uM [%]
47 | Cc1cccc(C)c1NC(=O)C(NC=O)c1ccccc1 (centres unmarked) | -11.1
48 | O=C(c1ccccc1)N1CCCC(c2ccc(Cl)cc2)=N1 | 14.4
49 | O=C(Nc1ccc(C(F)(F)F)cc1)c1cccnc1N1CCOCC1 | -2.56
50 | Cc1nc(C(F)(F)F)ccc1C(=O)Nc1ccc(C(F)(F)F)cn1 | 13.5
51 | Cc1nnc(C)c2c(C)n(-c3ccc4ncccc4c3)c(C)c12 | 5.13
52 | CC(C)(C)NC(=O)C(c1ccc(F)cc1)N(CCc1ccccc1)C(=O)c1ccn[nH]1 (centres unmarked) | 8.74
53 | CCOC(=O)N1CCC(N2Cc3cccc(C(=O)Nc4ccc(CC)cc4)c3C2=O)CC1 | 4.97
54 | CCCCNC(=O)Oc1c(Br)cc2sc(=O)oc2c1Br | 16
55 | N#CC1=C(N)NC(SCc2ccc(F)cc2)=C(C#N)C12CCCCC2 | 13.2
56 | Cc1nn(C)c(C)c1NC(=O)c1ccc(Br)o1 | 8.77
57 | COc1cccc(-n2c(SCC(=O)NC3CCS(=O)(=O)C3)nc3ccccc3c2=O)c1 (centres unmarked) | 15.1
58 | COc1ccc(C2Nc3cccc4cccc(c34)N2)cc1 | 8.37
59 | O=C(Cn1c(=O)n(-c2ccccc2)c(=O)c2sccc21)N1CCCC1 | 2.32
60 | COCCCNS(=O)(=O)c1ccc(C)cc1 | 11.9
61 | Cc1ccc(CNC(=O)C2CCC(=O)N(CCCN3CCOCC3)C2)cc1 (centres unmarked) | 16.2
62 | Cc1ccc(N=Nc2c(O)[nH]c(=O)[nH]c2=O)c([N+](=O)[O-])c1 | 2.51
63 | COCCn1c(SCC(=O)N2CCCC2)nnc1-c1ccco1 | 14.7
64 | COC(=O)c1c(NC(=O)CSc2nnc(-c3ccco3)n2C)sc(C)c1C | -3
65 | CC(=O)Nc1cccc(Oc2ncccc2[N+](=O)[O-])c1 | 3.08
66 | COc1ccccc1CC(=O)Nc1ccc(S(=O)(=O)N2CCCC2)cc1 | 8.61
67 | C/C(=N/NS(=O)(=O)c1ccc(C)cc1)c1cccc(NC(=O)c2cccc(Cl)c2)c1 | 13.1
68 | CN(C#N)c1nccc(-c2cccs2)n1 | 0.314
69 | CCOc1ccc(C(=O)N2CCN(c3ccccn3)CC2)cc1OCC | 16

Row | Compound | hERG current change (%, negative = inhibition) at 1uM [%]
70 | CC1Cc2cc(/C(O)=C3/C(=O)C(=O)N(CCCn4ccnc4)C3c3ccc(F)cc3)ccc2O1 (centres unmarked) | 7.91
71 | O=C(COC(=O)Cc1ccc(Br)cc1)Nc1c(F)c(F)c(F)c(F)c1F | 0.362
72 | O=C(Nc1cc2c3c(c1)CC(=O)N3CCC2)c1c(F)cccc1F | 9.99
73 | Cc1nn(C)c(C)c1C(C)NC(=O)c1cc(COc2cncc(Cl)c2)on1 (centres unmarked) | 35.3
74 | COc1ccc(NC(=O)CCNS(=O)(=O)c2ccc3[nH]c(=O)oc3c2)cc1Cl | -26.8
75 | CCc1nnc(NC(=O)CSc2nnc3c(C)cc4c(C)ccc(C)c4n23)s1 | 14.2
76 | COC(=O)c1ccc(-n2nc(C(F)(F)F)c3c2-c2ccoc2CC3)cc1 | 14.1
77 | O=C(CCc1nnc(COc2ccccc2)o1)NCc1ccccc1C(F)(F)F | 3.67
78 | O=C(Nc1ccc(F)cc1)C(=O)C1C(=O)Nc2ccccc21 (centres unmarked) | -3.38
79 | CC1CC(C)CN(C(=O)CSc2nnc(-c3ccc(Cl)s3)o2)C1 (centres unmarked) | 5.07
80 | COC(=O)c1ccc(CSc2nc(N)cc(N)n2)cc1 | 6.67
81 | Cc1c(C(=O)Nc2nccs2)oc2c(Cl)cccc12 | 11.7
82 | CCN(CC)CCN(Cc1cc2cc(C)cc(C)c2[nH]c1=O)C(=S)NCc1ccco1 | -9.67
83 | CCOc1ccccc1NC(=S)N(CCN(C)C)C(C)c1ccncc1 (centres unmarked) | 5.16
84 | CCCN(CC(=O)Nc1ccccc1C)C(=O)C1CCN(S(=O)(=O)c2ccccc2C(F)(F)F)CC1 | 5.51
85 | CCCc1nn2c(N)c(/C=C3\C=Nc4ccccc43)c(=O)nc2s1 | 12.4
86 | O=C(N/N=C1\CCc2ccccc21)c1ccccc1Cl | 10.1
87 | COc1ccc(N2CCN(Cc3nc(N)nc(N4CCCc5ccccc54)n3)CC2)cc1 | 0.804
88 | COc1ccc(C2C(C(=O)NCCN3CCOCC3)c3ccccc3C(=O)N2C2CCCCC2)cc1 (centres unmarked) | 10.7
89 | CCN1CCN(Cc2ccc(OCc3ccccc3)c(OC)c2)CC1 | 4.31
